# Out of some 310,000 compounds screened, about 14,000 (4.5%) showed an effect of 50% or more. Effects have a minus sign here. Some of the results follow.
# Target: human ether-à-go-go-related gene (hERG) potassium channel (human, UniProt Q12809)
# Test: primary screen, population patch clamp on CHO cells stably expressing hERG
# 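Note: peak tail current of the secondary pulse compared with the same well before compound.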
# Sequence of human ether-à-go-go-related gene (hERG) potassium channel (Q12809 whole entry, looked up): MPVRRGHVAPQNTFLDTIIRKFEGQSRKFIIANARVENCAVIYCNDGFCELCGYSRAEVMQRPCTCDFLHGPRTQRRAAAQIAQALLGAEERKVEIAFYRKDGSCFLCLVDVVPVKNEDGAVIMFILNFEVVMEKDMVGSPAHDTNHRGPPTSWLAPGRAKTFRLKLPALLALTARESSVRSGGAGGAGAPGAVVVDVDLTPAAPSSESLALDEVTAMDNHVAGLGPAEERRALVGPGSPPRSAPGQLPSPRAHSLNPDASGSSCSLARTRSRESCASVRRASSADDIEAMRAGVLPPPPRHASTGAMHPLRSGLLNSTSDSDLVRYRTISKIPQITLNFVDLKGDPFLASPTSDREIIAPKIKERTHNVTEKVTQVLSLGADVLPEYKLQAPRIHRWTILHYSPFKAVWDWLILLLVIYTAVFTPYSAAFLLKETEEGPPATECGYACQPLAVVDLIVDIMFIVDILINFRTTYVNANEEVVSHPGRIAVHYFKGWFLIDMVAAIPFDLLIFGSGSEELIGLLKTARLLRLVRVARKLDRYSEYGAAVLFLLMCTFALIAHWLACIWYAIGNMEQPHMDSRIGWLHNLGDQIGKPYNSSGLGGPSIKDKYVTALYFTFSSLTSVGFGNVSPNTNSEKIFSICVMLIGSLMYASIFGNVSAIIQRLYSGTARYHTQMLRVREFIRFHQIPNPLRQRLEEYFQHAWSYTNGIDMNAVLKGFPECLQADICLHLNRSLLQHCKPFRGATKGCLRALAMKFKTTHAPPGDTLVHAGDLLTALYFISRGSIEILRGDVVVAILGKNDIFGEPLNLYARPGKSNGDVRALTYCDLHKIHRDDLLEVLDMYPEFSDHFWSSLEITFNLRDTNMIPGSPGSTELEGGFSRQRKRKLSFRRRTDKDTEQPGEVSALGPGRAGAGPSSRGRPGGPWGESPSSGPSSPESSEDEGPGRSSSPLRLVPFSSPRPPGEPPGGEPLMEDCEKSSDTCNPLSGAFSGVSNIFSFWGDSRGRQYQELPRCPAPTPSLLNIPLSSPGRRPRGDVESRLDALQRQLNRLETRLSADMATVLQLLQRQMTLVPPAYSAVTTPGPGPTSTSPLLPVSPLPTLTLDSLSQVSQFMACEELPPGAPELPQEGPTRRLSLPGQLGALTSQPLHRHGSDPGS
row,Compound,"hERG current change (%, negative = inhibition) at 10uM"
1,CCCCn1c(Nc2ccccc2)nc2ccccc21,24.7%
2,Cn1cc(CN2CCN(Cc3ccc4c(c3)OCO4)CC2)c(-c2ccccc2F)n1,-20.1%
3,O=C(NCc1ccccc1)Nc1cccn(Cc2cccc(F)c2)c1=O,4.7%
4,O=C(O)c1ccccc1-c1nc2ccccc2[nH]1,19.6%
5,Cc1ccnc(NC(=O)CCC(=O)N(CC(=O)NCc2ccccc2)Cc2ccc(F)cc2)c1,-21.8%
6,CCCCCCCC(=O)NC1=NC(=O)C(C)(C)S1,8.81%
7,CCOc1ccc(C(=O)COC(=O)c2nn(CC)c(=O)c3ccccc23)cc1,-16.8%
8,CC(=O)Nc1ccc(NC(=O)CSc2nnc(C3CC3)n2-c2ccccc2)cc1,17.7%
9,CCCc1nn(C)c2c(=O)[nH]c(-c3ccccc3OCC)nc12,7.87%
10,COc1ccc(CN(C)C(=O)c2cccc(S(=O)(=O)N3CCN(c4ccccc4)CC3)c2)c(OC)c1OC,-3.12%
11,CC(C)(C)c1ccc(OC(=O)Nc2ccc(O)c(C(=O)O)c2)cc1,18.2%
12,Cc1nnc(SCC(=O)Nc2cccnc2Cl)s1,-2.23%
13,CCOc1ccc(C(=O)OC(C)CN2CCN(C)CC2)cc1.Cl (centres unmarked),-2.58%
14,CC(=O)Nc1ccc(C)c([N+](=O)[O-])c1,12.2%
15,COc1ccc(CCNC(=O)COC(=O)COc2ccc(Cl)cc2)cc1OC,7.05%
16,NC(=O)COC(=O)c1ccc(S(=O)(=O)N2CCCCCC2)cc1,0.851%
17,Cc1ccc2nc(NC(=O)c3ccccc3F)sc2c1,26.1%
18,C[C@]12CCC(OC(=O)CCC(=O)O)CC1=CCC1C2CC[C@]2(C)C(=O)CCC12 (some centres unmarked),11.5%
19,CC(=O)Nc1ccc(C(=O)NCC2(N3CCCCC3)CCCCC2)cc1,-14.2%
20,Cc1ccc(NC(=O)c2nc[nH]c2C(=O)NCCCCCNC(=O)OC(C)(C)C)cc1,-15.2%
21,COC(=O)c1cc(S(=O)(=O)N2CCN(c3cccc(C)c3C)CC2)c[nH]1,-0.92%
22,Cn1c(CNC(=O)C(Cc2ccccc2)NC(=O)c2ccccc2)cc(=O)n(C)c1=O (centres unmarked),3.28%

row,Compound,"hERG current change (%, negative = inhibition) at 10uM"
1,CCc1ccc(Nc2nnc(SCC(=O)Nc3cccnc3Cl)s2)cc1,-7.72%
2,CCCCCCc1c(C)[nH]c2nc3ccccc3n2c1=O,20.7%
3,Cn1c(=O)c2c(ncn2CC(=O)N/N=C/c2c[nH]c3ccccc23)n(C)c1=O,12.7%
4,Nc1c(C(=O)Nc2ccccc2Cl)nnn1-c1ccc2c(c1)OCCO2,21%
5,CCOC(=O)c1c(CSc2ccccc2)n(C)c2cc(Br)c(O)c(CN(C)C)c12,-68.5%
6,Br.CN=c1sc(C(=O)Nc2cccc(Cl)c2)cc(=O)n1C,9.39%
7,O=C1NC(=O)N(Cc2ccco2)C(=O)/C1=C/c1cccn1CCOc1ccccc1Cl,-1.23%
8,Cc1cc(=O)[nH]c(SC/C=C/c2ccccc2)n1,14.3%
9,CC(C)(C)OC(=O)N[C@@H](Cc1ccccc1)c1nnc(S(=O)(=O)Cc2cccc(F)c2)o1,18.8%
10,CC(=O)c1cccc(NC(=O)c2cc(-n3cnnc3)ccc2Cl)c1,-1.42%
11,CCc1nnc(NC(=O)CSc2nnnn2C)s1,3.04%
12,Cc1onc(-c2ccccc2Cl)c1C(=O)OCC(=O)Nc1cccc(S(=O)(=O)N2CCOCC2)c1,-5.62%
13,Oc1ccc(/C=N/NP(=S)(c2ccccc2)c2ccccc2)c(O)c1O,3.92%
14,O=C(O)c1cccc(C(=O)c2cccc(C(=O)O)c2)c1,9.19%
15,O=C(NNC(=S)Nc1ccc(Br)cc1)c1ccccc1,14.3%
16,CCOc1ccc2nc(NC(=O)CS(=O)(=O)c3ccccc3)sc2c1,4.38%
17,COc1ccc(NC(=O)CN(C)C(=O)CN2C(=O)C3CCCCC3C2=O)cc1 (centres unmarked),-11.9%
18,Cc1ccccc1NC(=O)C(c1ccccc1)C1CCCC1 (centres unmarked),6.52%
19,CCc1nc(SCC(=O)Nc2nnc(CC)s2)c2c(=O)n(C)c(=O)n(C)c2n1,4.23%
20,CC1CCCCN1C(=O)CSc1nnc(Cc2ccccc2)n1C (centres unmarked),21.7%
21,O=C(NCCCN1CCCC1)c1cc(Sc2ccc(F)cc2)nc2ccccc12,-74.1%
22,CC(C)(C)c1ccc(OCC(=O)NCc2ccco2)c(Br)c1,-18.3%

# Reference: publication PMC4336329 (PLoS ONE, 2015)
